Source: the antibiotic and cytotoxicity screens of Wong et al. (2023)
The list shows a part of the results.

These compounds were tested on S. aureus RN4220 (assay: growth inhibition call (relative growth <= 0.2)). Conditions: 50 µM.

Growth inhibition call, inactive:
COc1ccc(CN(C)C[C@@H]2OCCCC[C@H](C)Oc3ccc(NS(=O)(=O)c4ccccc4)cc3C(=O)N([C@H](C)CO)C[C@H]2C)cc1
COc1ccccc1CNC(=O)C[C@@H]1C[C@@H]2c3cc(NC(=O)c4ccc5c(c4)OCO5)ccc3O[C@@H]2[C@@H](CO)O1
COc1ccc2c3c(n(c2c1)C)[C@H](CO)N(CC1CCCC1)C[C@]13CCN(CC1)C(=O)Nc1ccccc1
COc1ccc(S(=O)(=O)Nc2ccc3c(c2)C(=O)N([C@@H](C)CO)C[C@@H](C)[C@@H](CN(C)S(=O)(=O)c2ccc(Cl)cc2)OCCCC[C@H](C)O3)cc1
C[C@H]1CN([C@@H](C)CO)C(=O)c2cc(NC(=O)Cn3cnnn3)ccc2O[C@@H]1CN(C)S(=O)(=O)c1ccc(F)cc1
C[C@@H]1CCCCO[C@@H](CN(C)S(=O)(=O)c2ccc(Cl)cc2)[C@@H](C)CN([C@H](C)CO)C(=O)c2cc(NS(=O)(=O)c3ccc(Cl)cc3)ccc2O1
C[C@H](CO)N1C[C@H](C)[C@@H](CN(C)Cc2ccc(C(F)(F)F)cc2)Oc2c(NC(=O)Nc3ccc(C(F)(F)F)cc3)cccc2C1=O
C[C@H](CO)N1C[C@H](C)[C@@H](CN(C)Cc2ccc3c(c2)OCO3)OCCCC[C@H](C)Oc2ccc(NC(=O)Nc3cccc4ccccc34)cc2C1=O
C[C@@H]1CN([C@H](C)CO)C(=O)c2cc(NC(=O)CCC(F)(F)F)ccc2O[C@@H](C)CCCCO[C@H]1CN(C)Cc1ccc(C(=O)O)cc1
C[C@H](CO)N1C[C@H](C)[C@@H](CN(C)Cc2ccc(Oc3ccccc3)cc2)Oc2ccc(NC(=O)Nc3ccc4c(c3)OCO4)cc2C1=O
